This note sets out measurements from the supplement of paper PMC12423691.

The other results are listed elsewhere or left out. Binding of human transcription factors and regulators to the viral nucleoprotein by AlphaScreen, crude cell-free proteins, amounts not normalised, one pass. Fold of the Venus control; higher = more signal. No active / inactive call. Single-pass screen; sequences are the whole Swiss-Prot entries looked up by name.

First the molecules themselves.
B1: DVL2, O14641 (protein)
chain: MAGSSTGGGGVGETKVIYHLDEEETPYLVKIPVPAERITLGDFKSVLQRPAGAKYFFKSMDQDFGVVKEEISDDNARLPCFNGRVVSWLVSSDNPQPEMAPPVHEPRAELAPPAPPLPPLPPERTSGIGDSRPPSFHPNVSSSHENLEPETETESVVSLRRERPRRRDSSEHGAGGHRTGGPSRLERHLAGYESSSTLMTSELESTSLGDSDEEDTMSRFSSSTEQSSASRLLKRHRRRRKQRPPRLERTSSFSSVTDSTMSLNIITVTLNMEKYNFLGISIVGQSNERGDGGIYIGSIMKGGAVAADGRIEPGDMLLQVNDMNFENMSNDDAVRVLRDIVHKPGPIVLTVAKCWDPSPQAYFTLPRNEPIQPIDPAAWVSHSAALTGTFPAYPGSSSMSTITSGSSLPDGCEGRGLSVHTDMASVTKAMAAPESGLEVRDRMWLKITIPNAFLGSDVVDWLYHHVEGFPERREARKYASGLLKAGLIRHTVNKITFSEQCYYVFGDLSGGCESYLVNLSLNDNDGSSGASDQDTLAPLPGATPWPLLPTFSYQYPAPHPYSPQPPPYHELSSYTYGGGSASSQHSEGSRSSGSTRSDGGAGRTGRPEERAPESKSGSGSESEPSSRGGSLRRGGEASGTSDGGPPPSRGSTGGAPNLRAHPGLHPYGPPPGMALPYNPMMVVMMPPPPPPVPPAVQPPGAPPVRDLGSVPPELTASRQSFHMAMGNPSEFFVDVM
B2: TSC22D2, O75157 (protein)
chain: MSKMPAKKKSCFQITSVTTAQVATSITEDTESLDDPDESRTEDVSSEIFDVSRATDYGPEEVCERSSSEETLNNVGDAETPGTVSPNLLLDGQLAAAAAAPANGGGVVSARSVSGALASTLAAAATSAPAPGAPGGPQLAGSSAGPVTAAPSQPPTTCSSRFRVIKLDHGSGEPYRRGRWTCMEYYERDSDSSVLTRSGDCIRHSSTFDQTAERDSGLGATGGSVVVVVASMQGAHGPESGTDSSLTAVSQLPPSEKMSQPTPAQPQSFSVGQPQPPPPPVGGAVAQSSAPLPPFPGAATGPQPMMAAAQPSQPQGAGPGGQTLPPTNVTLAQPAMSLPPQPGPAVGAPAAQQPQQFAYPQPQIPPGHLLPVQPSGQSEYLQQHVAGLQPPSPAQPSSTGAAASPATAATLPVGTGQNASSVGAQLMGASSQPSEAMAPRTGPAQGGQVAPCQPTGVPPATVGGVVQPCLGPAGAGQPQSVPPPQMGGSGPLSAVPGGPHAVVPGVPNVPAAVPAPSVPSVSTTSVTMPNVPAPLAQSQQLSSHTPVSRSSSIIQHVGLPLAPGTHSAPTSLPQSDLSQFQTQTQPLVGQVDDTRRKSEPLPQPPLSLIAENKPVVKPPVADSLANPLQLTPMNSLATSVFSIAIPVDGDEDRNPSTAFYQAFHLNTLKESKSLWDSASGGGVVAIDNKIEQAMDLVKSHLMYAVREEVEVLKEQIKELVERNSLLERENALLKSLSSNDQLSQLPTQQANPGSTSQQQAVIAQPPQPTQPPQQPNVSSA
B3: CREB3L4, Q8TEY5 (protein)
chain: MDLGIPDLLDAWLEPPEDIFSTGSVLELGLHCPPPEVPVTRLQEQGLQGWKSGGDRGCGLQESEPEDFLKLFIDPNEVYCSEASPGSDSGISEDPCHPDSPPAPRATSSPMLYEVVYEAGALERMQGETGPNVGLISIQLDQWSPAFMVPDSCMVSELPFDAHAHILPRAGTVAPVPCTTLLPCQTLFLTDEEKRLLGQEGVSLPSHLPLTKAEERVLKKVRRKIRNKQSAQDSRRRKKEYIDGLESRVAACSAQNQELQKKVQELERHNISLVAQLRQLQTLIAQTSNKAAQTSTCVLILLFSLALIILPSFSPFQSRPEAGSEDYQPHGVTSRNILTHKDVTENLETQVVESRLREPPGAKDANGSTRTLLEKMGGKPRPSGRIRSVLHADEM
B4: PURA, Q00577 (protein)
chain: MADRDSGSEQGGAALGSGGSLGHPGSGSGSGGGGGGGGGGGGSGGGGGGAPGGLQHETQELASKRVDIQNKRFYLDVKQNAKGRFLKIAEVGAGGNKSRLTLSMSVAVEFRDYLGDFIEHYAQLGPSQPPDLAQAQDEPRRALKSEFLVRENRKYYMDLKENQRGRFLRIRQTVNRGPGLGSTQGQTIALPAQGLIEFRDALAKLIDDYGVEEEPAELPEGTSLTVDNKRFFFDVGSNKYGVFMRVSEVKPTYRNSITVPYKVWAKFGHTFCKYSEEMKKIQEKQREKRAACEQLHQQQQQQQEETAAATLLLQGEEEGEED
B5: ZNF585B, Q52M93 (protein)
chain: MPASWTSPQKSSALAPEDHGSSYEGSVSFRDVAIDFSREEWRHLDLSQRNLYRDVMLETYSHLLSVGYQVPKPEVVMLEQGKEPWALQGERPRHSCPGEKLWDHNQHRKIIGYKPASSQDQKIYSGEKSYECAEFGKSFTWKSQFKVHLKVPTGEKLYVCIECGRAFVQKPEFITHQKTHMREKPYKCNECGKSFFQVSSLFRHHRIHTGEKLYECSECGKGFPYNSDLSIHEKIHTGERHHECTDCGKAFTQKSTLKIHQKIHTGERSYICIECGQAFIQKTQLIAHRRIHSGEKPYECNNCGKSFISKSQLQVHQRVHTRVKPYICTEYGKVFSNNSNLITHEKIQSREKSSICTECGKAFTYRSELIIHQRIHTGEKPYECSDCGRAFTQKSALTVHQRIHTGEKSYICMKCGLAFIRKAHLITHQIIHTGEKPYKCGHCGKLFTSKSQLHVHKRIHTGEKPYVCNKCGKAFTNRSNLITHQKTHTGEKSYICSKCGKAFTQRSDLITHQRIHTGEKPYECNTCGKAFTQKSNLNIHQKIHTGERQYECHECGKAFNQKSILIVHQKIHTGEKPYVCTECGRAFIRKSNFITHQRIHTGEKPYECSDCGKSFTSKSQLLVHQPVHTGEKPYVCAECGKAFSGRSNLSKHQKTHTGEKPYICSECGKTFRQKSELITHHRIHTGEKPYECSDCGKSFTKKSQLQVHQRIHTGEKPYVCAECGKAFSNRSNLNKHQTTHTGDKPYKCGICGKGFVQKSVFSVHQSSHA
B6: RUNX2, Q13950 (protein)
chain: MASNSLFSTVTPCQQNFFWDPSTSRRFSPPSSSLQPGKMSDVSPVVAAQQQQQQQQQQQQQQQQQQQQQQQEAAAAAAAAAAAAAAAAAVPRLRPPHDNRTMVEIIADHPAELVRTDSPNFLCSVLPSHWRCNKTLPVAFKVVALGEVPDGTVVTVMAGNDENYSAELRNASAVMKNQVARFNDLRFVGRSGRGKSFTLTITVFTNPPQVATYHRAIKVTVDGPREPRRHRQKLDDSKPSLFSDRLSDLGRIPHPSMRVGVPPQNPRPSLNSAPSPFNPQGQSQITDPRQAQSSPPWSYDQSYPSYLSQMTSPSIHSTTPLSSTRGTGLPAITDVPRRISDDDTATSDFCLWPSTLSKKSQAGASELGPFSDPRQFPSISSLTESRFSNPRMHYPATFTYTPPVTSGMSLGMSATTHYHTYLPPPYPGSSQSQSGPFQTSSTPYLYYGTSSGSYQFPMVPGGDRSPSRMLPPCTTTSNGSTLLNPNLPNQNDGVDADGSHSSSPTVLNSSGRMDESVWRPY

The experiment deals with nucleoprotein N of Crimean-Congo hemorrhagic fever virus. The experiment is described as follows: AlphaScreen luminescence signal relative to Venus negative control (fold); higher = stronger binding to CCHFV N. Here is the method:
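AlphaScreen binding of cell-free made, FLAG-GST-tagged human transcription factors and regulators (crude translation products) to biotinylated N protein; signal as fold of the FLAG-GST-Venus control. One pass.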
In turn, B1 gave an AlphaScreen luminescence signal of 1.81. As for B2, the figure is 1.16; as for B3, 3.81.

B4 returned an AlphaScreen luminescence signal of 5.12. As to B5, the AlphaScreen luminescence signal stood at 4.37. In turn, B6 showed an AlphaScreen luminescence signal of 1.95.
